Some of the results follow.

The test deals with T1, MBP-FoxP1dN (Mus musculus, UniProt P58462 326-579).
T1 sequence: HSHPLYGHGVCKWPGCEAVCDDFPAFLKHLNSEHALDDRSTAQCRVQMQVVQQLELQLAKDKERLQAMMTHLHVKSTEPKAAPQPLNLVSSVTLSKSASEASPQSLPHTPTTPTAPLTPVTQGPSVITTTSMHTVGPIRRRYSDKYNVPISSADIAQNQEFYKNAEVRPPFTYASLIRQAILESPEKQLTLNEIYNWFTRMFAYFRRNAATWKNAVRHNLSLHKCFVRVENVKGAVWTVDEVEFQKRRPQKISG
As to the kind of experiment: PD-seq (MBP pull-down with sequencing); 20 mM Tris-HCl pH 7.5, 100 mM NaCl, 1.5 mM MgCl2, 0.4 uM protein, 0.1 uM dsDNA library, 30 min, room temperature, amylose pull-down; high values mean tight binding. The note with it: protein: recombinant; tags: His6-MBP; chain copies: 2; dsDNA, one strand shown. The method in brief: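 The N-terminus-lacking fragment of mouse FoxP3 or FoxP1 carried a His6-MBP tag and was expressed in E. coli. At 0.4 µM it was incubated with 0.1 µM Klenow-filled degenerate double-stranded DNA library for 30 min at room temperature in Tris pH 7.5 buffer with NaCl and MgCl2, and complexes were caught on amylose resin, washed three times, released with proteinase K, PCR-barcoded and Illumina-sequenced. Binding is reads-per-million enrichment of pull-down over input with replicates pooled.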
Take “GATGATTGTTCTCCCAGCTGATGAATTTAGAAAATCGAGTAAACAAATTTTCCTAATCTTTCTGTTCAAGCGCCATCTAC”: the binding signal is 1.24 RPM ratio (pull-down/input).

For the sequence “GATGATTGTTCTCCCAGCTGATGAATTGTCGCTCTCGAGTAAACAAATTTTCCTAATCTTTCTGTTCAAGCGCCATCTAC”, the binding signal is 0.972 RPM ratio (pull-down/input).

In the case of “GATGATTGTTCTCCCAGCTGATGAATTCCTATGCTCGAGTAAACAAATTTTCCTAATCTTTCTGTTCAAGCGCCATCTAC”, the binding signal was 0.836 RPM ratio (pull-down/input).

As to “GATGATTGTTCTCCCAGCTGATGAATTTGGTCGATCGAGTAAACAAATTTTCCTAATCTTTCTGTTCAAGCGCCATCTAC”, the binding signal is 0.857 RPM ratio (pull-down/input).

With “GATGATTGTTCTCCCAGCTGATGAATTCACCATGTCGAGTAAACAAATTTTCCTAATCTTTCTGTTCAAGCGCCATCTAC”, the binding signal was 0.834 RPM ratio (pull-down/input).

For the sequence “GATGATTGTTCTCCCAGCTGATGAATTGGCAGTATCGAGTAAACAAATTTTCCTAATCTTTCTGTTCAAGCGCCATCTAC”, the binding signal was 0.94 RPM ratio (pull-down/input).

For the sequence “GATGATTGTTCTCCCAGCTGATGAATTAGGATGTTCGAGTAAACAAATTTTCCTAATCTTTCTGTTCAAGCGCCATCTAC”, the binding signal is 0.951 RPM ratio (pull-down/input).

Turning to “GATGATTGTTCTCCCAGCTGATGAATTTACGTACTCGAGTAAACAAATTTTCCTAATCTTTCTGTTCAAGCGCCATCTAC”, the binding signal is 1.31 RPM ratio (pull-down/input).

As for “GATGATTGTTCTCCCAGCTGATGAATTCGTTTTATCGAGTAAACAAATTTTCCTAATCTTTCTGTTCAAGCGCCATCTAC”, the binding signal was 0.925 RPM ratio (pull-down/input).

“GATGATTGTTCTCCCAGCTGATGAATTGCGGGCATCGAGTAAACAAATTTTCCTAATCTTTCTGTTCAAGCGCCATCTAC”: the binding signal is 1.16 RPM ratio (pull-down/input).

For the sequence “GATGATTGTTCTCCCAGCTGATGAATTACGTCGTTCGAGTAAACAAATTTTCCTAATCTTTCTGTTCAAGCGCCATCTAC”, the binding signal is 0.997 RPM ratio (pull-down/input).

Consider “GATGATTGTTCTCCCAGCTGATGAATTTTAGATTTCGAGTAAACAAATTTTCCTAATCTTTCTGTTCAAGCGCCATCTAC”, for which the binding signal was 0.909 RPM ratio (pull-down/input).

In the case of “GATGATTGTTCTCCCAGCTGATGAATTTTTTATCTCGAGTAAACAAATTTTCCTAATCTTTCTGTTCAAGCGCCATCTAC”, the binding signal was 0.997 RPM ratio (pull-down/input).

Turning to “GATGATTGTTCTCCCAGCTGATGAATTGTTACACTCGAGTAAACAAATTTTCCTAATCTTTCTGTTCAAGCGCCATCTAC”, the binding signal was 1.43 RPM ratio (pull-down/input).

For “GATGATTGTTCTCCCAGCTGATGAATTAAGACAGTCGAGTAAACAAATTTTCCTAATCTTTCTGTTCAAGCGCCATCTAC”, the binding signal was 0.806 RPM ratio (pull-down/input).

For the sequence “GATGATTGTTCTCCCAGCTGATGAATTGTTTGACTCGAGTAAACAAATTTTCCTAATCTTTCTGTTCAAGCGCCATCTAC”, the binding signal is 1.17 RPM ratio (pull-down/input).

Turning to “GATGATTGTTCTCCCAGCTGATGAATTAGGAGGCTCGAGTAAACAAATTTTCCTAATCTTTCTGTTCAAGCGCCATCTAC”, the binding signal was 0.948 RPM ratio (pull-down/input).

Turning to “GATGATTGTTCTCCCAGCTGATGAATTCCGGACGTCGAGTAAACAAATTTTCCTAATCTTTCTGTTCAAGCGCCATCTAC”, the binding signal is 0.776 RPM ratio (pull-down/input).

For “GATGATTGTTCTCCCAGCTGATGAATTTACTGGCTCGAGTAAACAAATTTTCCTAATCTTTCTGTTCAAGCGCCATCTAC”, the binding signal is 0.992 RPM ratio (pull-down/input).

For the sequence “GATGATTGTTCTCCCAGCTGATGAATTGCTGTAATCGAGTAAACAAATTTTCCTAATCTTTCTGTTCAAGCGCCATCTAC”, the binding signal is 1.51 RPM ratio (pull-down/input).

Turning to “GATGATTGTTCTCCCAGCTGATGAATTGATATCGTCGAGTAAACAAATTTTCCTAATCTTTCTGTTCAAGCGCCATCTAC”, the binding signal was 1.2 RPM ratio (pull-down/input).

For “GATGATTGTTCTCCCAGCTGATGAATTGGATCGCTCGAGTAAACAAATTTTCCTAATCTTTCTGTTCAAGCGCCATCTAC”, the binding signal is 0.797 RPM ratio (pull-down/input).

Turning to “GATGATTGTTCTCCCAGCTGATGAATTAGACCTATCGAGTAAACAAATTTTCCTAATCTTTCTGTTCAAGCGCCATCTAC”, the binding signal is 0.894 RPM ratio (pull-down/input).

With “GATGATTGTTCTCCCAGCTGATGAATTTTTTTTTTCGAGTAAACAAATTTTCCTAATCTTTCTGTTCAAGCGCCATCTAC”, the binding signal is 0.65 RPM ratio (pull-down/input).

Regarding “GATGATTGTTCTCCCAGCTGATGAATTGGGGACATCGAGTAAACAAATTTTCCTAATCTTTCTGTTCAAGCGCCATCTAC”, the binding signal was 0.943 RPM ratio (pull-down/input).

As to “GATGATTGTTCTCCCAGCTGATGAATTTCTGATTTCGAGTAAACAAATTTTCCTAATCTTTCTGTTCAAGCGCCATCTAC”, the binding signal is 1.07 RPM ratio (pull-down/input).

Regarding “GATGATTGTTCTCCCAGCTGATGAATTATTTTGATCGAGTAAACAAATTTTCCTAATCTTTCTGTTCAAGCGCCATCTAC”, the binding signal was 1.5 RPM ratio (pull-down/input).

Consider “GATGATTGTTCTCCCAGCTGATGAATTTCGACAGTCGAGTAAACAAATTTTCCTAATCTTTCTGTTCAAGCGCCATCTAC”, for which the binding signal was 0.878 RPM ratio (pull-down/input).

“GATGATTGTTCTCCCAGCTGATGAATTTAAGCGATCGAGTAAACAAATTTTCCTAATCTTTCTGTTCAAGCGCCATCTAC”: the binding signal is 0.889 RPM ratio (pull-down/input).

Turning to “GATGATTGTTCTCCCAGCTGATGAATTACTGCGTTCGAGTAAACAAATTTTCCTAATCTTTCTGTTCAAGCGCCATCTAC”, the binding signal is 1.13 RPM ratio (pull-down/input).

Take “GATGATTGTTCTCCCAGCTGATGAATTTGATCGCTCGAGTAAACAAATTTTCCTAATCTTTCTGTTCAAGCGCCATCTAC”: the binding signal was 0.799 RPM ratio (pull-down/input).

In the case of “GATGATTGTTCTCCCAGCTGATGAATTAGTGGGGTCGAGTAAACAAATTTTCCTAATCTTTCTGTTCAAGCGCCATCTAC”, the binding signal was 0.915 RPM ratio (pull-down/input).

Values taken from paper PMC12820563, “FoxP3 forms a head-to-head dimer in vivo and stabilizes its multimerization on adjacent microsatellites”.
